# Assay results published in the supplement of paper PMC4604168 (melanoma cell lines).
# This is one part of the list. Most values come without repeats; read them as rough.
# System: COLO800
# Assay: cell count relative to DMSO control; melanoma cells; higher = more viable cells
# Conditions: library dose: low library concentration; 72 h
# 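Note: cell number obtained by counting DAPI-stained nuclei in high-throughput microscope images with image analysis software, screen run in 1,536-well plates.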
row,Compound,cell count [%]
1,"CNC(=O)c1cc(Oc2ccc(NC(=O)Nc3ccc(Cl)c(C(F)(F)F)c3)cc2)ccn1 [sorafenib] + Cn1c(Nc2ccc(C(F)(F)F)cc2)nc2cc(Oc3ccnc(-c4ncc(C(F)(F)F)[nH]4)c3)ccc21 [CHIR265] (first compound 0.4 µM, partner dose 0.08 µM)",190
2,"C=CCNC1=C2C[C@@H](C)C[C@H](OC)[C@H](O)[C@@H](C)/C=C(\C)[C@H](OC(N)=O)[C@@H](OC)/C=C\C=C(/C)C(=O)NC(=CC1=O)C2=O [Tanespimycin] + CC(=O)c1c(C)c2cnc(Nc3ccc(N4CCNCC4)cn3)nc2n(C2CCCC2)c1=O [palbociclib] (first compound 0.002 µM, partner dose 0.04 µM)",78.6
3,"CN1CCN(c2ccc3nc(-c4c(N)c5c(F)cccc5[nH]c4=O)[nH]c3c2)CC1 [Dovitinib] + Cc1nc(Nc2ncc(C(=O)Nc3c(C)cccc3Cl)s2)cc(N2CCN(CCO)CC2)n1 [dasatanib] (first compound 0.1 µM, partner dose 0.004 µM)",75.2
4,"CN1CCN(c2ccc3nc(-c4c(N)c5c(F)cccc5[nH]c4=O)[nH]c3c2)CC1 [Dovitinib] + C=C(c1ccc(C(=O)O)cc1)c1cc2c(cc1C)C(C)(C)CCC2(C)C [Bexarotene] (first compound 0.1 µM, partner dose 2 µM)",58.1
5,"CNC(=O)c1cc(Oc2ccc(NC(=O)Nc3ccc(Cl)c(C(F)(F)F)c3)cc2)ccn1 [sorafenib] + CC(=O)c1c(C)c2cnc(Nc3ccc(N4CCNCC4)cn3)nc2n(C2CCCC2)c1=O [palbociclib] (first compound 0.4 µM, partner dose 0.04 µM)",128
6,"C=CCNC1=C2C[C@@H](C)C[C@H](OC)[C@H](O)[C@@H](C)/C=C(\C)[C@H](OC(N)=O)[C@@H](OC)/C=C\C=C(/C)C(=O)NC(=CC1=O)C2=O [Tanespimycin] + OCc1c[nH]c2ccccc12 [Indole-3-carbinol] (first compound 0.002 µM, partner dose 0.8 µM)",81.5
7,"CS(=O)(=O)CCNCc1ccc(-c2ccc3ncnc(Nc4ccc(OCc5cccc(F)c5)c(Cl)c4)c3c2)o1 [lapatinib] + Cn1c(Nc2ccc(C(F)(F)F)cc2)nc2cc(Oc3ccnc(-c4ncc(C(F)(F)F)[nH]4)c3)ccc21 [CHIR265] (first compound 0.8 µM, partner dose 0.08 µM)",112
8,"CN1CCN(c2ccc3nc(-c4c(N)c5c(F)cccc5[nH]c4=O)[nH]c3c2)CC1 [Dovitinib] + C=CCNC1=C2C[C@@H](C)C[C@H](OC)[C@H](O)[C@@H](C)/C=C(\C)[C@H](OC(N)=O)[C@@H](OC)/C=C\C=C(/C)C(=O)NC(=CC1=O)C2=O [Tanespimycin] (first compound 0.1 µM, partner dose 0.002 µM)",117
9,"CN1CCN(c2ccc3nc(-c4c(N)c5c(F)cccc5[nH]c4=O)[nH]c3c2)CC1 [Dovitinib] + Nc1cccc2c1CN(C1CCC(=O)NC1=O)C2=O [lenalidomide] (first compound 0.1 µM, partner dose 1 µM)",71.8
10,"CN1CCN(c2ccc3nc(-c4c(N)c5c(F)cccc5[nH]c4=O)[nH]c3c2)CC1 [Dovitinib] + O=C(O)[C@@H]1[O][Sb](=[O])([O][Sb]2(=[O])[O][C@H]([C@H](O)CO)[C@H](O)[C@H](C(=O)O)[O]2)[O][C@H]([C@H](O)CO)[C@@H]1O [stibogluconate] (first compound 0.1 µM, partner dose 2 µM)",19
11,"C=CCNC1=C2C[C@@H](C)C[C@H](OC)[C@H](O)[C@@H](C)/C=C(\C)[C@H](OC(N)=O)[C@@H](OC)/C=C\C=C(/C)C(=O)NC(=CC1=O)C2=O [Tanespimycin] + COc1ccc(Cl)c(Nc2nc3ccccc3nc2NS(=O)(=O)c2cccc(NC(=O)C(C)(C)N)c2)c1 [XL147] (first compound 0.002 µM, partner dose 0.8 µM)",80.7
12,"CN1CCN(c2ccc3nc(-c4c(N)c5c(F)cccc5[nH]c4=O)[nH]c3c2)CC1 [Dovitinib] + Nc1ncn([C@H]2C[C@H](O)[C@@H](CO)O2)c(=O)n1 [decitabine] (first compound 0.1 µM, partner dose 0.1 µM)",83.2
13,"C[C@@H](Oc1cc(-c2cnn(C3CCNCC3)c2)cnc1N)c1c(Cl)ccc(F)c1Cl [Crizotinib] + Cc1nc(Nc2ncc(C(=O)Nc3c(C)cccc3Cl)s2)cc(N2CCN(CCO)CC2)n1 [dasatanib] (first compound 0.2 µM, partner dose 0.004 µM)",78.2
14,"CS(=O)(=O)CCNCc1ccc(-c2ccc3ncnc(Nc4ccc(OCc5cccc(F)c5)c(Cl)c4)c3c2)o1 [lapatinib] + CC(=O)c1c(C)c2cnc(Nc3ccc(N4CCNCC4)cn3)nc2n(C2CCCC2)c1=O [palbociclib] (first compound 0.8 µM, partner dose 0.04 µM)",96.3
15,"CS(=O)(=O)CCNCc1ccc(-c2ccc3ncnc(Nc4ccc(OCc5cccc(F)c5)c(Cl)c4)c3c2)o1 [lapatinib] + COCC[n+]1c2c(n(Cc3cnccn3)c1C)C(=O)c1ccccc1C2=O [YM155] (first compound 0.8 µM, partner dose 0.0004 µM)",109
16,"CN1CCN(c2ccc3nc(-c4c(N)c5c(F)cccc5[nH]c4=O)[nH]c3c2)CC1 [Dovitinib] + COCC[n+]1c2c(n(Cc3cnccn3)c1C)C(=O)c1ccccc1C2=O [YM155] (first compound 0.1 µM, partner dose 0.0004 µM)",98.4
17,"C[C@@H](Oc1cc(-c2cnn(C3CCNCC3)c2)cnc1N)c1c(Cl)ccc(F)c1Cl [Crizotinib] + CCCS(=O)(=O)Nc1ccc(F)c(C(=O)c2c[nH]c3ncc(Cl)cc23)c1F [PLX4720] (first compound 0.2 µM, partner dose 0.08 µM)",82.6
18,"C=CCNC1=C2C[C@@H](C)C[C@H](OC)[C@H](O)[C@@H](C)/C=C(\C)[C@H](OC(N)=O)[C@@H](OC)/C=C\C=C(/C)C(=O)NC(=CC1=O)C2=O [Tanespimycin] + Cc1nc(Nc2ncc(C(=O)Nc3c(C)cccc3Cl)s2)cc(N2CCN(CCO)CC2)n1 [dasatanib] (first compound 0.002 µM, partner dose 0.004 µM)",110
19,"CS(=O)(=O)CCNCc1ccc(-c2ccc3ncnc(Nc4ccc(OCc5cccc(F)c5)c(Cl)c4)c3c2)o1 [lapatinib] + Nc1nc(F)nc2c1ncn2[C@@H]1O[C@H](CO)[C@@H](O)[C@@H]1O [fludarabine] (first compound 0.8 µM, partner dose 0.2 µM)",116
20,"C[C@@H](Oc1cc(-c2cnn(C3CCNCC3)c2)cnc1N)c1c(Cl)ccc(F)c1Cl [Crizotinib] + Nc1cccc2c1CN(C1CCC(=O)NC1=O)C2=O [lenalidomide] (first compound 0.2 µM, partner dose 1 µM)",167
21,"C[C@@H](Oc1cc(-c2cnn(C3CCNCC3)c2)cnc1N)c1c(Cl)ccc(F)c1Cl [Crizotinib] + COc1ccc(Cl)c(Nc2nc3ccccc3nc2NS(=O)(=O)c2cccc(NC(=O)C(C)(C)N)c2)c1 [XL147] (first compound 0.2 µM, partner dose 0.8 µM)",99.8
22,"CS(=O)(=O)CCNCc1ccc(-c2ccc3ncnc(Nc4ccc(OCc5cccc(F)c5)c(Cl)c4)c3c2)o1 [lapatinib] + CCCS(=O)(=O)Nc1ccc(F)c(C(=O)c2c[nH]c3ncc(Cl)cc23)c1F [PLX4720] (first compound 0.8 µM, partner dose 0.08 µM)",110
